Source: paper PMC4336329 (PLoS ONE, 2015)
About 14,000 (4.5%) of roughly 310,000 compounds showed an effect of 50% or more. Effects have a minus sign here. Some of the results follow.

These compounds were tested against human ether-à-go-go-related gene (hERG) potassium channel (human, UniProt Q12809) (assay: primary screen, population patch clamp on CHO cells stably expressing hERG).
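Also: peak tail current of the secondary pulse compared with the same well before compound.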

Chain of human ether-à-go-go-related gene (hERG) potassium channel (Q12809 whole entry, looked up): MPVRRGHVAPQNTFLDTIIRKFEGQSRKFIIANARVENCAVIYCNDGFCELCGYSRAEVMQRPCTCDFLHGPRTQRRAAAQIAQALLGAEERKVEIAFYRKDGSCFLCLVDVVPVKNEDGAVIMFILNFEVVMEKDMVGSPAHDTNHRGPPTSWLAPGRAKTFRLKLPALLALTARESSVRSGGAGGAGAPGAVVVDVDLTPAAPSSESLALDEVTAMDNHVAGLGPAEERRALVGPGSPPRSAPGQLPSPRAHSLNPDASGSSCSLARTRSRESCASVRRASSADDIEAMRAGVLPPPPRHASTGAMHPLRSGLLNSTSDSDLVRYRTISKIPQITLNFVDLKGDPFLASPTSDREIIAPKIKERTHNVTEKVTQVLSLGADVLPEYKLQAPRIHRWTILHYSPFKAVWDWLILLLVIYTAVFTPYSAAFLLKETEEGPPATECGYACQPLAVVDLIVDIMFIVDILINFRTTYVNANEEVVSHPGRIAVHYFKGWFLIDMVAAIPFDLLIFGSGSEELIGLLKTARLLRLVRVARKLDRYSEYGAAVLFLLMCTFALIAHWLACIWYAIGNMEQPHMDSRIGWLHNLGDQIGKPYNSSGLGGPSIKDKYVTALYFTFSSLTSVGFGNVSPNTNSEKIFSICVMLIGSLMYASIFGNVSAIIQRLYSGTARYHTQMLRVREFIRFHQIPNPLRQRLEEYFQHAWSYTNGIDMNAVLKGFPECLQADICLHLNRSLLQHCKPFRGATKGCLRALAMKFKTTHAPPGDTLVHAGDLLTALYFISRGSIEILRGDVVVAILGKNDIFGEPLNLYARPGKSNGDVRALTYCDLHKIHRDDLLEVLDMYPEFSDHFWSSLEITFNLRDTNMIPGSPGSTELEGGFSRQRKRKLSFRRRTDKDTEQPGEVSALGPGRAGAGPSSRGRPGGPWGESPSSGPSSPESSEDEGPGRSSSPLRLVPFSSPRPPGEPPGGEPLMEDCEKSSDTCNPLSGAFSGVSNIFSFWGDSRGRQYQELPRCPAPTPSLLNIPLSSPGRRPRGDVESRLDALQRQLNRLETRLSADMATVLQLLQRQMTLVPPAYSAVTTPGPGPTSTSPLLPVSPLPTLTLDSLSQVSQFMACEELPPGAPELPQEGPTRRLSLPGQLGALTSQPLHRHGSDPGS

SMILES | hERG current change (%, negative = inhibition) at 10uM
Cc1ccc2nc(NC(=O)COC(=O)c3ccco3)sc2c1 | -6.52%
O=C(Nc1nccs1)NC(C(F)(F)F)C(F)(F)F | 14.5%
CC1(C)CC(=O)C=C(c2cccc3c2sc2ccccc23)C1 | 14%
NC(=O)c1c(NC(=O)CSc2nc3c(c(C(F)(F)F)n2)CCc2ccccc2-3)sc2c1CCCC2 | -1.81%
OC(c1ccc(Cl)cc1Cl)C(Cc1cccnc1)n1cncn1 (stereo not shown) | -5.53%
O=C1CC(c2ccco2)Cc2nc(N3CCc4ccccc4C3)ncc21 (stereo not shown) | -20.7%
COC(=O)CN1C(c2ccccc2)=Nc2ccc(Cl)cc2C1c1ccccc1 (stereo not shown) | -66.4%
O=C(NC(=S)N(CCCCO)C1CCCCC1)c1sc2ccccc2c1Cl | -6.23%
CCCCOc1ccc(C(O)C(CN2CCCCC2)c2ccccc2)cc1 (stereo not shown) | -38.9%
CC(C)CN1C(=O)C(=O)N(CC(=O)c2ccc[nH]2)C1=O | 1.48%
CCC(=O)N1CC(=O)Nc2ccc(Br)cc2C1c1ccccc1 (stereo not shown) | -11.6%
CN(C)S(=O)(=O)c1cccc(C(=O)Nc2ccccc2[N+](=O)[O-])c1 | -19.9%
O=C(Nc1nccs1)C(Br)C(Br)c1ccccc1 (stereo not shown) | 17.8%
O=C(NCCS(=O)(=O)N1CCCC1)c1ccccc1 | 14.5%
COC(=O)c1nnn(-c2cccc(Cl)c2)c1C(=O)OC | 8.51%
O=C(O)c1ccc(N/N=C2/CCCc3ccccc32)cc1.O=S(=O)(O)O | 0.56%
COc1ccc(/C=C/C(=O)c2ccc(OC)cc2O)cc1 | 9.92%
COc1ccc(/C=N/NC(=O)Cn2c(Cc3ccc(OC)c(OC)c3)nc3ccccc32)cc1 | -10.2%
CCOC(=O)N1CCC(N2C(=O)c3ccccc3C2Nc2c(C)cccc2C)CC1 (stereo not shown) | -75.1%
CCC(Oc1ccccc1)C(=O)OCC(=O)Nc1sccc1C(N)=O (stereo not shown) | -12.8%
Cc1c(-c2nc(-c3cccnc3)no2)cccc1[N+](=O)[O-] | 41.1%
O=C(Cc1ccccc1)Nc1ccc(C(=O)O)cc1 | -20.6%
C=CCn1c(O)c(C(C)=NCC2CCCO2)c(=O)[nH]c1=O (stereo not shown) | -6.3%
O=C(C1CCC(=O)N1Cc1ccccc1Cl)N1CCC2(CC1)OCCO2 (stereo not shown) | -29.7%
Cc1ccc(COc2cccc3c2CCN(Cc2ccc(F)cc2)C3=O)cc1 | 6.8%
